This is one part of the list.
Tested on: PfSIP2 AP2 domain 1 (GST-tagged)
Test: gcPBM binding intensity (ln(normalized median fluorescence intensity)); higher = stronger DNA binding
Summary of the method: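 For binding intensity, the highest Masliner-normalised natural-log median intensity across replicate spots of either probe orientation was taken. Protein bound to the array was stained with Alexa488 anti-GST antibody and scanned at 488 nm. The protein, GST-tagged P. falciparum DNA-binding domains from E. coli at about 25 μg on average, had been applied for 1 h to an Agilent 4 × 180k array of primer-extended double-stranded 36-bp intergenic genomic probes and negative controls.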

Sequence | gcPBM binding intensity (ln)
ATATATATATATATATGTACACATATATGTGTTTGT [XGTACX_site62] | 9.19
TTAATAAACCTTAGATGTACAGTTATATATAAAATA [XGTACX_site6681] | 6.91
TGAACTCACGAGCACACACACACATATATATATATA [CACACA_site8248] | 9.18
ATACAATAAAGGTGTACACATATATGATGCAAGATG [CACACA_site5897] | 7.46
ATATATATTTTTTAATGTACTTATATTTTTATAATA [XGTACX_site2103] | 7.25
AATTAAACTCACACCACACACAAAAAAAAAAAAAAA [CACACA_site693] | 7.05
AGCAATTGTGTTTTCACACATAAATATATTCCTCAC [CACACA_site5021] | 6.92
GGTCATATTTTTTGCACACAAAAAAAAATATAAAAT [CACACA_site3381] | 7.76
GTATGTATGTATGTATGTACTTATGTAGTCTTAGTT [XGTACX_site1710] | 8.15
AGTGTAGGTATATAAACACACATACAGATATATAAT [CACACA_site4900] | 6.95
TATTCAGGTCCAATGGTGCAATATATTTTTGTAATA [GTGCAC_site9607] | 10.5
TAAAAAATAAAATGGACACACACGTTCAAATTTAGA [CACACA_site2083] | 6.82
TTTAAAAATGCTACATGTACAAAATAAAATATAATA [XGTACX_site2905] | 7.26
ATATATATATATAAAAGTACATGCTTATATATATAT [XGTACX_site3786] | 9.34
AAGTTTATCACAGCCACGCACACATAATATATGTAT [CACACA_site3670] | 6.98
ATTTTTTTTATTCAATGTACTTTTTTTTATATATAT [XGTACX_site4978] | 7.43
CACCCACTAATAAACACACACATATATATATATATA [CACACA_site389] | 9.51
TATATAAACATACATACACACATACAATAAGTAAAA [CACACA_site5118] | 7.19
TACAAAATATATATGACACACATAAAAAAAAGTATA [CACACA_site1373] | 6.96

Sequence | gcPBM binding intensity (ln)
AATAAAATGAGATGTTGTACAGTTTTGATATATGCA [XGTACX_site3052] | 7.11
ACCTAAGAACTATTTACACACATATACAAAATATAT [CACACA_site2459] | 7.31
ATTGTTCTATGATTTGTACACACTTTTTTTTAAAAT [CACACA_site2825] | 7.55
CATATAAAAATATGCACACACAGGAATACAAACATA [CACACA_site684] | 7.5
AATAAAAAACTACAATATACAAAATTATTAAATCAA [GTGCAC_negctrl_site703] | 6.71
AAACGTACATAATACACACACATGTATCCATATAAA [CACACA_site5173] | 7.21
TATATTGAATGCAAAAGTACATTTGTGTAAATTTAT [XGTACX_site7611] | 6.96
TTTTTGTATTCTACCTTAACAATCTTAAAGATTTTT [CACACA_negctrl_site1157] | 6.97
TGATGGTTACGTTTATGTACACATTACAGTTAGTAT [XGTACX_site998] | 6.86
TTTTTTTTTTTAAAATGTACACGTAATTACATATAT [XGTACX_site752] | 6.96
ACTACATTATTGCATTGTACTTTTTTTTTTTTTTTA [XGTACX_site4605] | 7.33
TTAAAAATTATATAAGTGCATTAATATTTAGAACAA [GTGCAC_site9773] | 8.39
AAAATATATTAAGGCACACACATACATATATATATA [CACACA_site3723] | 9.08
GAGTTAATATTTAAAAGTACAAGATGAATGTAAAAA [XGTACX_site5810] | 7.01
TTAAAAATATATGAATGTACATATATTTATATATAT [XGTACX_site77] | 7.34
TACTTACCAAAATACACACACACACCCAATATATAA [CACACA_site1871] | 7.27
TTTTTTTTATTAGTGTGTACGCATTTATTTATACAT [XGTACX_site1599] | 7.86
TTTAAATTATGAAATTGTACATATAAAAATATTTTA [XGTACX_site4796] | 6.89
TATATATTATTTAAAACACACAAAAAAAAAAATTAT [CACACA_site89] | 6.93

Sequence | gcPBM binding intensity (ln)
TAAAATATAATAAAATGTACACGCATGCAATAGAAT [XGTACX_site7434] | 7.28
GCTTCTTAGTATACTTTATAAAATATATATTAAATA [XGTACX_negctrl_site57] | 7.39
ATATCGGGTGCATTAACACACATTTATTTGAATAAA [CACACA_site2350] | 11.7
TTTATAAATATATATACACACACATATATATTATAT [CACACA_site8099] | 7.09
ATATATCATAATAGAGGTACACATATTATATATATA [XGTACX_site782] | 7.91
ATATTAAATATAATTTGTACGCATTTTTTTTTTTTT [XGTACX_site1910] | 7.62
AATTATAATTAATAGAGTACTGAATATATATATATA [XGTACX_site8683] | 9.1
TTCCCTTTTTTTATTTGTACTTATCTTTTAAATAAT [XGTACX_site2497] | 7.23
AGCATTTTTCATTTTGCACACATGTTTTATGTGTAT [CACACA_site3454] | 7.11
AAAAAAAAAAAAAAGACACACATATATATATATATA [CACACA_site633] | 9.11
AATATTACAAAATATTGTCCGTACAAATTTTTAATA [XGTACX_site8129] | 6.86
GATGATAAAATATGTACACACAGTTTATACATTTTG [CACACA_site4055] | 6.88
ATATACATATATATGGGTACATATATTAATATATAT [XGTACX_site8358] | 7.2
ATTTTGAAAAATAAAAGTACATATAATATATCTACA [XGTACX_site7185] | 6.93
TTAACATATTATAAGTGTACATATTTATAAACAAGA [XGTACX_site8806] | 7.37
TCTGTTAATATTTATACACACATATTTATTTATATA [CACACA_site6658] | 7.09
TTTAGATATATGGTAGTGCATAATAAAAATATAGCC [GTGCAC_site9449] | 8.94
CACTCCATATTATACACACACACAAATGAAAAAAAT [CACACA_site3019] | 7.41
AATTAGATTTACTGAAGTACTTAATTTATTTTATTA [XGTACX_site3407] | 6.82
